# Results as given in the supplement of paper PMC8728848.
# Some of the results follow.
# B1: Epa10 (protein)
# chain: MNEKIFRYLTLLFLFELARSLPVEDKLNIKKVFEKRAVDFTPFAHYPRPEGCSSPPNSVSVGLHMNLYNYPYLYVKPSTKGMFTNDTNSDADGETDGDSAGGIEGRAGQCWNPEYQDPNFPRFGYKQYGEFGASDNVNGDISWDHNEFTEGCKPVLAALPPGYNYPDEITFSNFTMVLSGYFKPKTSGVYKFELKADDFILFNFGAKNAFECCNREESIDNFGPYVAYAMWPNQADQELEVYLFEDSYYPLRLFYNNRDYHSKFKIGFYPPGQTTITFDFDGYLFMLDDTGNECRDSIRYRTVCDDKVVDDTTYSTRYSTSMVPGGGSDVITIYYIRMKCEEEDCLGQWDPINNVCYSPDDCADDGGYWNGQMCDQSCKLEGGIVNPDTGDCDKSCIESGGFLDENGNCDTTCRDDGGMLVEGQCDYQCKEAGGILVGDHCDTTCVDSGGKLNEDGTCDHSCRDQGGQLDENGECDTSCKDSGGMLIEGECDTSCKDEGGQLDDNNECINHCKDQGGIIDENGNCDTSCKDSGGKLDESGACDTSCRDDGGIIDENGNCNTTCRDDGGIIVGDHCDTSCRDAGGILIEDHCDTTCRDSGGKLNEDGTCDHSCRDQGGQLDENGKCDYSCKNGGGKLDEDGNCDMSCKENGGKLDENGDCDLSCKEDGGKLDGNGDCDYSCKEEGGVIDESGNCNTTCKDSGGQIIDGECNYGCIEVGGVVIDGECDTSCIDSGGILDGDGNCDRSCIESGGVLEDGACNTTCRDSGGQLNVDGTCDTSCRDDGGMLVEGQCDYQCKEAGGILEDGECVFPPTSSSTSETSSTTDQSSLQSDDSSMESSSTPMDSSTIESSSSEIITSESESESVPIASSSSEVMTSESESESIPILTSSSEIPIASSSSEIPVASSSSEIIIPESESESVPVASSSSEIPIASSSSEIPVASSSSEIPVASSSSEIIIPESESESIPIESTSSEAVSSRSESDSSYPTPTPTTTTITTWPNPIQPTTSNSSPIVSSSTETPGIAESSSRISDLESSRRTSILGDDRTRTRTTITSTITEDGQIITITTTVTGFVPEPTGETEGNGSDDENPENPIENNTDENEFLDPEFTDDIPDDPAGPEDNGNGPVNPEQGNDNDPVNLEDSGNNGAVNPEQAPVNDEDNGGNDPVNPEQDNNNGPANPGQDSTNGSGNSDQIDNNPPTPEENAGDGNSNGNDPADPSRRTSILGDERTRASPGGTSQPTGANGNVNGNSPGANVNGGGTGNSNNNNNNNNNNNNGNAPNGGDGSNGDANQGPSRRTSLLGDERTRAGQAAPTGGSSPDNGIAGDTSNNGGAIVSQQVDDGGAGSPRRTSILGDVRSRTTLNGEVLNFEGSGVRRAVAGNLALPLMMVGLVFNL
# Assays:
# Test in all cases: glycan array binding signal (z-score within array); higher = stronger binding
# Conditions in all cases: glycan notation: IUPAC condensed, linker removed
# Neu5Ac(a2-8)Neu5Ac = biological target: Neu5Ac(a2-8)Neu5Ac
# Outline: (§1)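 The Consortium for Functional Glycomics database supplied 3228 glycan arrays, of which those lacking an available protein sequence were dropped. The binding signal, a within-array Z-score, was averaged across arrays of the same protein sequence and across linkers. Negative scores can be read as non-binding.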
# [1] = biological target: Neu5Ac(a2-8)Neu5Ac(a2-3)Gal(b1-3)GalNAc(b1-4)[Neu5Ac(a2-3)]Gal(b1-4)Glc
# Outline: as §1
# [2] = biological target: Neu5Ac(a2-8)Neu5Ac(a2-3)Gal(b1-3)GalNAc(b1-4)[Neu5Ac(a2-8)Neu5Ac(a2-3)]Gal(b1-4)Glc
# Outline: as §1
# [3] = biological target: Neu5Ac(a2-8)Neu5Ac(a2-3)Gal(b1-4)Glc
# Outline: as §1
# [4] = biological target: Neu5Ac(a2-8)Neu5Ac(a2-3)Gal(b1-4)GlcNAc
# Outline: as §1
# [5] = biological target: Neu5Ac(a2-8)Neu5Ac(a2-3)[Gal(b1-3)GalNAc(b1-4)]Gal(b1-4)Glc
# Outline: as §1
# [6] = biological target: Neu5Ac(a2-8)Neu5Ac(a2-3)[GalNAc(b1-4)]Gal(b1-4)Glc
# Outline: as §1
# [7] = biological target: Neu5Ac(a2-8)Neu5Ac(a2-8)Neu5Ac
# Outline: as §1
# [8] = biological target: Neu5Ac(a2-8)Neu5Ac(a2-8)Neu5Ac(a2-3)Gal(b1-4)Glc
# Outline: as §1
# [9] = biological target: Neu5Ac(a2-8)Neu5Ac(a2-8)Neu5Ac(a2-3)[Gal(b1-3)GalNAc(b1-4)]Gal(b1-4)Glc
# Outline: as §1
# [10] = biological target: Neu5Ac(a2-8)Neu5Ac(a2-8)Neu5Ac(a2-3)[GalNAc(b1-4)]Gal(b1-4)Glc
# Outline: as §1
# [11] = biological target: Neu5Ac(a2-8)Neu5Ac(a2-8)Neu5Ac(a2-8)Neu5Ac(a2-3)[GalNAc(b1-4)]Gal(b1-4)Glc
# Outline: as §1
# [12] = biological target: Neu5Ac(a2-8)Neu5Gc(a2-3)Gal(b1-4)GlcNAc
# Outline: as §1
# [13] = biological target: Neu5Ac(b2-6)Gal(b1-4)GlcNAc
# Outline: as §1
# Neu5Ac(b2-6)GalNAc = biological target: Neu5Ac(b2-6)GalNAc
# Outline: as §1
# [14] = biological target: Neu5Ac9Ac(a2-3)Gal(b1-3)GlcNAc
# Outline: as §1
# [15] = biological target: Neu5Ac9Ac(a2-3)Gal(b1-4)GlcNAc
# Outline: as §1
# [16] = biological target: Neu5Ac9Ac(a2-6)Gal(b1-4)GlcNAc
# Outline: as §1
# [17] = biological target: Neu5Gc(a2-3)Gal(b1-3)GlcNAc
# Outline: as §1
# [18] = biological target: Neu5Gc(a2-3)Gal(b1-3)[Fuc(a1-4)]GlcNAc
# Outline: as §1
# Neu5Gc(a2-3)Gal(b1-4)Glc = biological target: Neu5Gc(a2-3)Gal(b1-4)Glc
# Outline: as §1
# [19] = biological target: Neu5Gc(a2-3)Gal(b1-4)GlcNAc
# Outline: as §1
# [20] = biological target: Neu5Gc(a2-3)Gal(b1-4)GlcNAc(b1-3)Gal(b1-4)GlcNAc(b1-2)Man(a1-3)[Neu5Gc(a2-3)Gal(b1-4)GlcNAc(b1-3)Gal(b1-4)GlcNAc(b1-2)Man(a1-6)]Man(b1-4)GlcNAc(b1-4)GlcNAc
# Outline: as §1
# [21] = biological target: Neu5Gc(a2-3)Gal(b1-4)[Fuc(a1-3)]GlcNAc
# Outline: as §1
# [22] = biological target: Neu5Gc(a2-6)Gal(b1-4)GlcNAc
# Outline: as §1
# Neu5Gc(a2-6)GalNAc = biological target: Neu5Gc(a2-6)GalNAc
# Outline: as §1
# [23] = biological target: Neu5Gc(a2-8)Neu5Ac(a2-3)Gal(b1-4)GlcNAc
# Outline: as §1
# [24] = biological target: Neu5Gc(a2-8)Neu5Gc(a2-3)Gal(b1-4)GlcNAc
# Outline: as §1
# [25] = biological target: Neu5Gc(a2-8)Neu5Gc(a2-3)Gal(b1-4)GlcNAc(b1-3)Gal(b1-4)GlcNAc
# Outline: as §1
# [26] = biological target: Neu5Gc(a2-8)Neu5Gc(a2-6)Gal(b1-4)GlcNAc
# Outline: as §1
# [27] = biological target: Neu5Gc(b2-6)Gal(b1-4)GlcNAc
# Outline: as §1
binder,measurement,setting,value
B1,glycan array binding signal (z-score),Neu5Ac(a2-8)Neu5Ac,-0.236
same,glycan array binding signal (z-score),[1],-0.151
same,glycan array binding signal (z-score),[2],-0.233
same,glycan array binding signal (z-score),[3],-0.282
same,glycan array binding signal (z-score),[4],-0.203
same,glycan array binding signal (z-score),[5],2.56
same,glycan array binding signal (z-score),[6],-0.27
same,glycan array binding signal (z-score),[7],-0.274
same,glycan array binding signal (z-score),[8],-0.31
same,glycan array binding signal (z-score),[9],-0.226
same,glycan array binding signal (z-score),[10],-0.322
same,glycan array binding signal (z-score),[11],-0.292
same,glycan array binding signal (z-score),[12],-0.257
same,glycan array binding signal (z-score),[13],-0.294
same,glycan array binding signal (z-score),Neu5Ac(b2-6)GalNAc,-0.257
same,glycan array binding signal (z-score),[14],-0.254
same,glycan array binding signal (z-score),[15],-0.271
same,glycan array binding signal (z-score),[16],-0.297
same,glycan array binding signal (z-score),[17],-0.25
same,glycan array binding signal (z-score),[18],-0.222
same,glycan array binding signal (z-score),Neu5Gc(a2-3)Gal(b1-4)Glc,-0.177
same,glycan array binding signal (z-score),[19],-0.269
same,glycan array binding signal (z-score),[20],-0.292
same,glycan array binding signal (z-score),[21],-0.161
same,glycan array binding signal (z-score),[22],-0.302
same,glycan array binding signal (z-score),Neu5Gc(a2-6)GalNAc,-0.24
same,glycan array binding signal (z-score),[23],-0.315
same,glycan array binding signal (z-score),[24],-0.283
same,glycan array binding signal (z-score),[25],-0.156
same,glycan array binding signal (z-score),[26],-0.289
same,glycan array binding signal (z-score),[27],-0.217
